The RNAGym collection of RNA variant scans (doi:10.1073/pnas.2313332121)
Variants at the background level are over-represented here.

B1: TPR 5TU (parent)
chain: GGAUCUUCUCGAUCUAACAAAAAAGACAAAUCUGCCACAAAGCUUGAGAGCAUCUUCGGAUGCAGAGGCGGCAGCCUUCGGUGGCGCGAUAGCGCCAACGUUCUCAACUAUGACACGCAAAACGCGUGCUCCGUUGAAUGGAGUUUAUCAUG

Variants of: B1
Assay: polymerase ribozyme fitness, log enrichment relative to wild type (log ratio); higher = more active; in vitro selection for triplet polymerase activity
In short: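 Genotype fitness is the logarithm of its enrichment divided by wild-type enrichment, using inverse-variance-weighted averages of replicates. That logarithm is base 2. Enrichment was measured by Illumina sequencing of input and output libraries from one triplicate in vitro selection round, with frozen incubation at −7 °C, on PCR-built, transcribed mutant libraries of each subunit of a heterodimeric triplet polymerase ribozyme, retaining genotypes with ≥10 input reads and ≥1 read per output.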

Polymerase ribozyme fitness (log ratio), ≤ -4.2:
G42U U78A
U45A C63U G84U C85A U101G C129A
G42A U44A A60G G67U C85A G88U G126A G136U
U44A G92A A107U U146C
C43U G46U A47U G59C C87U U90C A98U
U45G G84A G133U A142C
G42U C43G C54G G94U U144C A147C
A47C G74U G81C C99G C108U C131G
A47G A60G A64C G67C A73C C85U C93U
G42A G58C
C43U U45G A73G G84U C85A A110G G128A G141U U148G
U44G C69U U78G C131G G141A A142U
G46A C76A G92A G126A G141A A142C A150G
G42A C57G G68A A137C
G42A C131G
G46A C54A C76G C99G C129A U135C A138G
G42C U55C G58C G94U A97C C103G A147U
A47C C57A A66C C87A A89U A120U A121U C123A C125U U144A
A47C G59A G68A U82G A120C G126A
U44G C99A
G42C G80U C85U
U45C U61A A91C A110C
C43U C93U A98U
C43U G58A G74A C75U C105A A110G
G42A G74A C85U C114U U127G U134G U146C G152C
G46A A49G U55G G86A C123G G140A
C43G C57U C72G U77C A97G
G42C A47C G59A G81C C93A G94U
G46C A60G A91U U101G G117C U145A U146C
U44A C87A G100A U148A
A47C A52C C79A C85G
A47U C79A C114A C129A
G46C C79G
U44A A60C C85A U144G U151A
C43U C54G C93G A142C
G42A U56A A66U A73G C79U A115G A120U A121U A150C
G42U C57G A98U
U44A G84A A113G C114U U145C
G42U C105G A106U
C43G G50U C51G G80U G84U C132U
U44G U56A C87G U135A U145G
G42U G62U A98G U104G U134C
C43G C87U C116G G124U
G46A G68A C87A C105G G128A G141C C149U
G46A G68A C93G C96U
G46C G59C A91G U104G U109C C118U G141A
G46C A47C C57U C99G C131A
A47G U90G U135A G143A
G46A A47U A52G U78C G80A C87A G112C
G42A U61G U78C G92C
G42A U44G C57U G83A A110U A121U
U44A C85U A91U U109A A115G
G42U G71U
U45A G50C C87A A107C C125G
G42U U61G A73G C125U A142C
U44A C57U G71A G83A C95A
G42A C57U A60C G84C C123G
A47U C76G C96U C116G U148A
G46A G62C C85U C93U C105A A113G U127C
U44A U55A G92A C125U G141A U145C U146A
G42U G94C C116A U145G
A47U U55A A64C
U44A C63U G92U C96A U104G A110C
G48A A49G G88U C96U
G48A G50A A122U A150G
C43U G50A C57G U77G C87U C96U C105G A107C C125G
G42C U53A C72U C93A G143A U146G
A47G C85A A91G U104G A106U U139G
G48A G68C A142C
U44G A64U G83A G128A
U44A U55G A64G A73U U130G
G42C U45G G58U A91C C105U A122U
G46U U82G G86U C96G U139G U144G
A47G U55G C76G A91U C131A G133U
G46A C87G
G42C A49G A73G G83A G136C U144A
U45A A52G A73G C96G
G46U A60C C93A A97U A137C U139C U144A U151G
U45A C63A A115U C118G G128A
G42A G50C C79A C93U
U44A A47U C69A G94A
C43A U53A A66G G88C
G42U U55A C72U C79U U101G A120U
U44A G50A C85U U102C
C43A C96G C116A G140C
C43U U44G C72A C93A C103A A142U C149G
C43U A66G G74C G126C U146C
G42C A91G C131G
G48A U53G G80C A138G
C43A G84A C99A U127A G128U C131A
A47U C72G C114U A120U
U44G U55G C75U
G46U G67U C69U U82A G136U A138C U144A
U45A U55A G71U
A47C C87A A106U C114A
U44A U55A C63A C105G
U44A G86C
A47U U55A A73U C76G G83C C93U G140U A142U U151G
A47C U56A C87A A97G
U44C U53A C85U A98G
G46C A52C A64C C93G
G42U G83A A138G G140A U145G
G46A C79A A91U C105G G133U G141A G143A
A47G U55A A106G A113U A138G
A47C C54A G83A C118G A142C
A47C C75A G84A C123A
C43U C85G A107C
G42U G81U A89C C95G C99G U134G G143C U151C
U44G G48A G68A C87A U102G U134G
A47U G59A G84A C149G
U45A A60G C116G U139A A142G
A47U C85G A91U
A47U C57A C87U C93A C108U G141C
U44G C125U A147C
C43U A89G C103A A113U A147C C149A
G42C C85A
G42C U44A A49U A60C C79U C96U
A47C C85A C93G A97U A107G A121U
G46A U61G A97U U102G C103U A110G A121C C125G
A47U G50A A64C A115C
G46A A49G U77G C87U A150C
G42U C93G A107U
U44G G59A G68U A107U U109G
A47G C87A
C43A C76U G92U
G42A G83U C96A
C43U C149G
U45A C54G U56G G62C C85A U144G
U45A U55G C69G G86U A110G U111G
U44G C76A G88U C96A A122C
G42C G62C U134A
C43G G83A G140A
G46U C63U A66G C79G G83U G94U C105G U146G
U44G G86U G92A
G48A U53A G71C A119C
U45G U55C G94C C129U A137U
U44G A47U C95A A115U G128U C129U
C43U A64G G81C C93A A106G G117C A120C A137G
G42A U56A U61G C69G C85U
G46A U82C G92A C96G A122U C125U
U44A U53A C54U G84U C108G G136U
U44A G58A A91U C103U C116A A138C
U45A G59U A73G G80A G86C A91U G92A A106G G136A A142C
G46C G58A G59C C95U C99U A107U C132U U145A
A47C G71C C95A C125G
A47C C85A C96G A142G G152A
G42A G50A G71A G80U G94C C96U C105A U127A
G42U G62C U104G G140A
G48A G74U C85U G88A
A47G G50A C87G A110G C125U
A47C C75U C85A C93A A98U
A47G A49G C103G
A47C C85G C95U U139C U148G
C43U G86U A97G U111G C132A U135G
U44G A52U G65U C87U C93G
G46C A47U U55A C85A C96A C99G G143A
C43A C75G U77G C85U A91U A97C C105U G112U
U44G G46A U61G C85A A115G U127C
A47C A66U C76U C85A C99A
C43U A52C U82A
U44A A52C G88A A119C
C43U A89C C99U A137C G141C
U45A C57A C99A C116U
C43A C105G G141C
U44G G58C C69A C79U
G46U A47G A89U U101G
C43G A91U C95A
